Measured values reported in PubChem BioAssay AID1458 (National Center for Advancing Translational Sciences (NCATS), 2008).
Screen size: about 210,000 compounds; about 5,900 (2.8%) were called active. The inconclusive results got no clear call from the source; some entries with a clear call stand among them for comparison. The call rests on the fitted dose curve; in most records, active means well fitted activation curve with a large enough effect; inconclusive means small, poorly fitted or top-dose-only effect; inactive means no such curve, though single readings can be large or run the other way. A potency beside an inconclusive call is a rough fit, not a confirmed value.

assay: qHTS Assay for Enhancers of SMN2 Splice Variant Expression; details: HEK293 SMN2-luciferase splicing reporter, luminescence, 30-36 h; activity change, positive = activation: at 46.1 µM (top of the series); further: nearly all actives have a fitted effect of over 55% in size; on activity change, positive = activation: % of control where 0% means no effect
Method in brief: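 HEK293 cells carry an SMN2 minigene-luciferase reporter in which exon 7 inclusion puts luciferase in frame. Cells were seeded at 2000 cells/well, attached for 10-12 hours, then exposed to compounds for 30-36 hours at 37C before ONE-Glo luminescence.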
Potency means the concentration at half of the fitted maximal effect; tags describe the fitted curve by direction and shape.

SMILES	Potency	activity change, positive = activation
C=CCOC(=O)C(C#N)c1nc2ccccc2nc1N1CCN(Cc2ccc3c(c2)OCO3)CC1 (configuration not stated)	inconclusive: 10 µM [activator, partial curve, poor fit]	–
CC(=O)N(C1=C(N)C(=O)c2ccccc2C1=O)C(C)C	–	inactive: -26.5%
Cn1c(SCC(=O)CC(=O)Nc2ccccc2)nnc1-c1ccc(O)cc1	inconclusive: 1.58 µM [activator, partial curve]	–
CCc1ccc2c(c1)/C(=C/C(=O)c1cccs1)C(=O)N2	–	inactive: -26.1%
CCCCc1c(O)nc2sc3cc(OC)ccc3n2c1=O	–	inactive: 29%
COCC(C)NC(=O)c1cc2c(=O)n3cccc(C)c3nc2s1 (configuration not stated)	–	inactive: -15.5%
Cc1nn(-c2ccc(Cl)c(Cl)c2Cl)c(=O)c2ccccc12	–	inactive: -12.3%
CN(CCC#N)C(=O)COC(=O)c1ccccc1C(=O)c1ccc(Cl)c([N+](=O)[O-])c1	inconclusive: 35.5 µM [activator, single point]	–
Cc1[nH]c2ccccc2c(=O)c1CN(C)Cc1ccccc1	inconclusive: 22.4 µM [activator, partial curve, poor fit]	–
Cc1ccc(C(=O)c2cc3ccccc3o2)cc1C	inconclusive: 35.5 µM [activator, single point]	–
O=C1N/C(=N/Nc2ccccc2)S/C1=C\c1ccccc1	inconclusive: 0.126 µM [activator, full curve, poor fit]	–
O=C1NC(=O)/C(=C\c2ccc(Oc3cnccn3)cc2)S1	inconclusive: 35.5 µM [activator, single point]	–
Cc1ccc(CNc2ccc(N3CCOCC3)cc2)s1	active: 17.8 µM	–
COc1cccc(-c2noc(-c3cccs3)n2)c1	active: 12.6 µM	–
Cc1cccc(C2Nc3ccccc3C(=O)N2CCc2ccccc2)n1 (configuration not stated)	inconclusive: 3.16 µM [activator, single point]	–
Cc1ccc(-c2cn(-c3ccccc3)c(SCC(=O)NC3CCS(=O)(=O)C3)n2)cc1C (configuration not stated)	inconclusive: 35.5 µM [activator, single point]	–
CCC(=O)Nc1cc(-c2cc3ccccc3oc2=O)ccc1OC	active: 1.12 µM	–
C/C(=C1/SC(N2CCCC2)=NC1=O)c1ccc(Br)cc1	inconclusive: 20 µM [activator, partial curve, poor fit]	–
O=C(CCC1CCCC1)Nc1ccc(Br)cn1	inconclusive: 14.1 µM [activator, partial curve]	–
CCOC(=O)C1(O)Oc2cc(OC)cc(OC)c2C(=O)C1c1ccccc1 (configuration not stated)	–	inactive: -3.97%
CSc1nsc(/C=C/Nc2ccc(C)cc2)c1C#N	inconclusive: 3.16 µM [activator, partial curve]	–
COCCN(C(=O)c1csnn1)C(C(=O)NC1CCCCC1)c1cccs1 (configuration not stated)	inconclusive: 35.5 µM [activator, partial curve, poor fit]	–
COc1ccc(NC(=O)[C@H](C)NC(N)=O)cc1S(=O)(=O)Nc1cc(C)ccc1Br	inconclusive: 5.62 µM [activator, single point]	–
CSCCC(NS(=O)(=O)c1ccc2c(c1)oc(=O)n2C)C(=O)Nc1ccc(Cl)cc1 (configuration not stated)	–	inactive: 12.4%

SMILES	Potency	activity change, positive = activation
COc1ccc(/C=C/C(=O)NCCSCc2ccco2)cc1	–	inactive: 6.64%
COCCNS(=O)(=O)c1ccc(-c2ccc(S(=O)(=O)NCCOC)cc2)cc1	active: 20 µM	–
COc1ccc(Cl)cc1S(=O)(=O)NCc1cccs1	inconclusive: 1.26 µM [activator, full curve]	–
CC(C)CN=C(N)N=C(N)N	–	inactive: -8.88% [at 9.22 µM]
CC(=O)Nc1ccc(Nc2nc(C)c([N+](=O)[O-])c(Nc3ccc(NC(C)=O)cc3)n2)cc1	inconclusive: 0.0501 µM [activator, full curve, poor fit]	–
COc1ccc(OC)c(CNC(=O)CN(c2ccc(C)cc2)S(=O)(=O)N(C)C)c1	inconclusive: 15.8 µM [activator, single point]	–
N/C(=N\c1nc2ccccc2o1)NC(=O)c1ccccc1F	inconclusive: 15.8 µM [activator, single point]	–
N#CCc1c(C#N)c(N)nc(N2CCN(Cc3ccc4c(c3)OCO4)CC2)c1C#N	–	inactive: -17.5%
O=C(NC1(C(F)(F)F)C(=O)Nc2c1c(=O)[nH]c(=O)n2-c1ccccc1)c1ccccc1 (configuration not stated)	–	inactive: -4.62%
CC(C)CC(=O)NC(=S)Nc1sc2c(c1C(N)=O)CCC2	–	inactive: 17.5%
CCOc1cccc(C(=O)NC(=S)Nc2ccc(N3CCCC3)cc2)c1	–	inactive: -37.7%
O=C(Nc1ncc2c(n1)-c1ccccc1CC2)c1ccccc1	–	inactive: 3.14%
CCOC(=O)CCCNC(=O)N1CCc2nc(-c3ccc(OC)cc3C)c3c(c2C1)CO[C@@H](c1ccccc1)C3	–	inactive: -4.32% [at 9.22 µM]
COCCN=c1scc(-c2cccs2)n1/N=C(\C)c1ccco1	inconclusive: 11.2 µM [activator, partial curve]	–
CCC(=O)Nc1ccc(NC(=O)c2cc3ccccc3o2)cc1	–	inconclusive: 34.1% [activator]
Cc1ccc2occ(CC(=O)N(Cc3ccccc3Cl)C3CCS(=O)(=O)C3)c2c1 (configuration not stated)	–	inactive: -5.51%
CN(C)S(=O)(=O)c1ccc(C(=O)Nc2nnc(Cc3ccccc3)s2)cc1	inconclusive: 28.2 µM [activator, partial curve, poor fit]	–
CC1=C(C(=O)OCc2ccccc2)C(c2ccc(Cl)cc2Cl)NC(=O)N1CCCC(=O)O (configuration not stated)	inconclusive: 25.1 µM [activator, single point]	–
Cc1ccc2nc(-c3ccccc3)nc(SC(C)C(=O)NCc3cccs3)c2c1 (configuration not stated)	inconclusive: 35.5 µM [activator, single point]	–
S=c1[nH]nc(-c2cccnc2)n1/N=C/C(Cl)=C\c1ccccc1	active: 12.6 µM	–
O=C(Nc1ccon1)c1ccccc1F	inconclusive: 35.5 µM [activator, partial curve, poor fit]	–
COc1ccc(CCNC(=O)CSc2nnc3ccc(-c4ccncc4)nn23)cc1	inconclusive: 14.1 µM [activator, single point]	–
COc1cc(C(=O)Nc2sc3c(c2C#N)CCN(C(C)=O)C3)cc(OC)c1OC	inconclusive: 7.08 µM [activator, partial curve]	–
